Structures can show the parent of a compound that is named as a salt. Over roughly 2,800 compounds, “cell viability relative to vehicle” has its median near 1.1; the lowest 2% begin near 0.19. The list shows a part of the results.

The assay has as its system NCI-H2228 parental. In words: cell viability relative to vehicle (fraction of vehicle); NCI-H2228 is an ALK-positive lung cancer line and DTP means drug-tolerant persister; higher = less growth inhibition. To be noted: 100 nM; treatment time 6 days. A digest of the protocol:
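The 3114-agent TargetMol anti-cancer compound library was tested at 100 nM for 6 days on parental NCI-H2228 cells and on persister cells derived with 1000 nM of a targeted drug for 13 days. ATP readout by the CellTiter-Glo 3D Cell Viability Assay gave cell viability relative to DMSO vehicle-treated cells.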
On to `CC(=O)O[C@H]1C[C@@H]2CC[C@@H]3[C@H](CC[C@@]4(C)[C@H]3C[C@H]([N+]3(C)CCCCC3)[C@@H]4OC(C)=O)[C@@]2(C)C[C@@H]1N1CCCCC1` [Vecuronium bromide], for which the cell viability was 0.99.
As for `C[C@]12C=CC(=O)C=C1CC[C@H]1[C@@H]3C[C@@H](O)[C@](O)(C(=O)CO)[C@@]3(C)C[C@H](O)[C@@]12F` [Triamcinolone], the cell viability turned out to be 1.12.
The figure for `N#Cc1ccc(COC[C@H]2O[C@@H](n3c(NCc4ccc(Cl)c(Cl)c4)nc4c(N)ncnc43)[C@H](O)[C@@H]2O)cc1` is 1.03; for `CC[C@@H](C)c1ccc(NC(=O)Cn2cnc3c2c(=O)n(C)c(=O)n3C)cc1` (racemic) it is 0.944; for `C[C@@H]1O[C@@H](OC[C@H]2O[C@@H](Oc3c(-c4ccc(OCCO)c(OCCO)c4)oc4cc(OCCO)cc(O)c4c3=O)[C@H](O)[C@@H](O)[C@@H]2O)[C@H](O)[C@H](O)[C@H]1O` [Troxerutin] it is 1.11.
The figure for `CC(=O)CCCCn1c(=O)c2c(ncn2C)n(C)c1=O` [Pentoxifylline] is 1.11.
The figure for `Cn1nccc1Nc1nccc(-c2cc3c(s2)C(C)(C)N(CCN2CCOCC2)C3=O)n1` is 1.08.
Turning to `CC(C)CN(CC(=O)N1CCN(CC(OCc2ccc3ccccc3c2)c2ccc(Cl)cc2Cl)CC1)CC(C)C` (stereo unspecified), the cell viability is 1.12.
The figure for `CN(C/C=C/c1ccccc1)Cc1cccc2ccccc12` [Naftifine hydrochloride] is 1.29; for `COc1cc2c(cc1OCCCN1CCCC1)N=C(N)C21CCC1` it is 1.12; for `Nc1c(CC(=O)O)cccc1C(=O)c1ccc(Br)cc1` [Bromfenac sodium] it is 1.12.
The figure for `C[C@H]1O[C@@H](n2cc(F)c(=O)[nH]c2=O)[C@H](O)[C@@H]1O` [Doxifluridine] is 0.98; for `CC(C)(C)c1nc(-c2cccc(NS(=O)(=O)c3c(F)cccc3F)c2F)c(-c2ccnc(N)n2)s1` [Dabrafenib] it is 0.894.
The figure for `Cc1cc(Nc2cc(N)ncn2)c(=O)n2c1C(=O)NC21CCCCC1` is 0.932; for `O=c1c(-c2ccc(O)cc2)coc2cc(O)ccc12` [Daidzein] it is 1.01.
Take `CC1(C)CC[C@]2(C(=O)O)CC[C@]3(C)C(=CC[C@@H]4[C@@]5(C)CC[C@H](O)C(C)(C)[C@@H]5CC[C@]43C)[C@@H]2C1` [Oleanolic Acid]: the cell viability came to 1.23.
To `O=C(O)CCCCC(CCSCc1ccccc1)SCc1ccccc1` (stereo unspecified) belongs 1.16; to `CN1c2ccccc2C(=O)Nc2cnc(Nc3ccc(N4CCC(O)CC4)cc3)nc21`, 0.984; to `CC(C)(O)c1ccc2c(c1)ncn2-c1cccc(-c2ccccc2C#N)c1`, 0.988.
The figure for `O=C(Oc1ccccc1C(=O)O)c1ccccc1O` [Sasapyrine] is 1.15; for `COc1c(C)c2c(c(O)c1C/C=C(\C)CCC(=O)O)C(=O)OC2` [Mycophenolic acid] it is 1.16; for `CS(=O)(=O)c1ccc(-c2cnc(N)c(C(=O)Nc3ccccc3)n2)cc1` it is 1.01.
As for `NS(=O)(=O)c1cc(Cl)c(Cl)c(S(N)(=O)=O)c1` [Dichlorphenamide], the cell viability was 1.21.
As to `CCCCCNC(=N)N/N=C/c1c[nH]c2ccc(OC)cc12` [Tegaserod maleate], the cell viability turned out to be 1.27.
To `O=C(O)C1=CO[C@@H](O[C@@H]2O[C@H](CO)[C@@H](O)[C@H](O)[C@H]2O)[C@@H]2C(CO)=CC[C@H]12` [Geniposidic Acid] belongs 1.15; to `CN(C)CCOc1ccc(-c2nc(-c3ccncc3)c(-c3ccc4c(c3)CC/C4=N\O)[nH]2)cc1`, 1.06; to `C[C@H](Cc1cc2c(c(C(N)=O)c1)N(CCCO)CC2)NCCOc1ccccc1OCC(F)(F)F` [Silodosin], 1.07.
To `C/C(=C\C(=O)Nc1ccccc1C(=O)O)c1ccc2ccccc2c1` belongs 0.98; to `O=C(c1ccc(/C=C/c2n[nH]c3ccccc23)cc1)N1CCNCC1`, 0.917; to `O=C(NCCN1CCOCC1)c1ccc(Cl)cc1` [Moclobemide], 1.16.
Regarding `COc1ccc(C[C@H](N)C(=O)N[C@H]2[C@@H](O)[C@H](n3cnc4c(N(C)C)ncnc43)O[C@@H]2CO)cc1` [Puromycin dihydrochloride], the cell viability came out at 1.04.
Take `Cc1ccnc(NS(=O)(=O)c2ccc(N)cc2)n1` [Sulfamerazine]: the cell viability was 0.88.
Turning to `NCCCC(O)(P(=O)(O)O)P(=O)(O)O` [Alendronate sodium hydrate], the cell viability was 1.01.
`N.N.O=C([O-])C[O-].[Pt+2]` [Nedaplatin]: the cell viability stood at 0.999.
As for `COC(=O)N[C@H](C(=O)N[C@@H](Cc1ccccc1)[C@@H](O)CN(Cc1ccc(-c2ccccn2)cc1)NC(=O)[C@@H](NC(=O)OC)C(C)(C)C)C(C)(C)C` [Atazanavir], the cell viability was found to be 0.982.
To `COC(=O)Nc1ccc(-c2nc(N3CCOCC3)c3cnn(C4CCN(C(=O)OC)CC4)c3n2)cc1` belongs 0.854; to `N#CC(=Cc1cc(Cl)cc(Cl)c1)c1cccnc1`, 1.14.
The figure for `C[C@H](Cn1cnc2c(N)ncnc21)OCP(=O)(O)O` [Tenofovir] is 1.14; for `OC(CCN1CCCCC1)(c1ccccc1)C1CCCCC1` (racemic) [DL-trihexyphenidyl hydrochloride] it is 0.929; for `CCOC(=O)[C@H](CCc1ccccc1)N[C@@H](C)C(=O)N(CC(=O)O)C1Cc2ccccc2C1` [Delapril Hydrochloride] it is 1.12.
The figure for `COc1nnc2ccc(N3CCC(c4ccc(OCCN5CCN(C)C(=O)[C@H]5C)cc4)CC3)nn12.O=C(O)c1ccc2cc(O)ccc2c1` [AZD5153 6-Hydroxy-2-naphthoic acid] is 0.783; for `C[C@H](CC(=O)C[C@@H](C)[C@H]1C[C@H](O)[C@@]2(C)C3=C(C(=O)C[C@]12C)[C@@]1(C)CCC(=O)C(C)(C)[C@@H]1C[C@@H]3O)C(=O)O` [Ganoderic acid A] it is 0.986; for `N#CC(c1ccnc(OCc2ccc(CN3CCOCC3)cc2)n1)c1nc2ccccc2s1` (stereo unspecified) it is 1.05.
`O=c1c(O[C@@H]2O[C@H](CO)[C@@H](O)[C@H](O)[C@H]2O)c(-c2ccc(O)c(O)c2)oc2cc(O)cc(O)c12` [Isoquercitrin]: the cell viability is 0.983.
Consider `O=c1c(O[C@@H]2O[C@H](CO)[C@@H](O)[C@H](O)[C@H]2O)c(-c2ccc(O)c(O)c2)oc2cc(O)cc(O)c12`, for which the cell viability was determined as 1.03.
To `CC(C)n1c(/C=C/C(O)CC(O)CC(=O)O)c(-c2ccc(F)cc2)c2ccccc21` (stereo unspecified) [Fluvastatin sodium salt] belongs 1.04; to `O=c1ccn([C@@H]2O[C@H](CO)[C@@H](O)[C@H]2O)c(=O)[nH]1` [Uridine], 1.14.
The figure for `COc1cc(/C=C2/SC(=S)NC2=O)ccc1OCC(=O)O` is 1.1; for `CC(C)(C)c1ccc(C(=O)CCCN2CCC(OC(c3ccccc3)c3ccccc3)CC2)cc1` [Ebastine] it is 0.967.
Turning to `CCn1nc(C2CCN(C(=O)CCO)CC2)nc1-c1cnc(N)c(-c2nnc(C(C)(C)C)o2)n1`, the cell viability was 1.04.
The figure for `O=C1CCC[C@@H]2[C@H]3CCC[N+]4([O-])CCC[C@@H](CN12)[C@@H]34` (stereo partly specified) [Oxymatrine] is 1; for `CS(=O)(=O)c1ccc(-c2cnc(NCc3ccco3)n3cnnc23)cc1` it is 1.02; for `Cn1ccnc1` [Saccharin 1-methylimidazole (SMI)] it is 1.09.
To `COc1ccc(S(=O)(=O)Nc2ccccc2C=Cc2ccncc2)cc1` belongs 0.238.
`Cc1c(C)c2c(c(C)c1O)CCC(C)(C(=O)O)O2` (stereo unspecified) [Trolox]: the cell viability came to 1.18.
Consider `C[C@@H](C(=O)Nc1ccc(Cl)cc1)[C@H]1CC[C@@H](c2ccnc3ccc(F)cc32)CC1` [Linrodostat], for which the cell viability amounted to 0.956.
Regarding `COc1cc(C2Oc3cc([C@H]4Oc5cc(O)cc(O)c5C(=O)[C@@H]4O)ccc3OC2CO)ccc1O` (stereo partly specified) [Silibinin], the cell viability stood at 1.14.
The figure for `O=c1[nH]c2cc(C(F)(F)F)ccc2n1-c1cc(C(F)(F)F)ccc1O` is 1.13; for `CN(C)CCn1nnnc1SCC1=C(C(=O)O)N2C(=O)[C@@H](NC(=O)Cc3csc(N)n3)[C@H]2SC1` [Cefotiam hydrochloride] it is 1.07; for `CN1CCN(c2ccc(Nc3ncc4cc(C#N)c(=O)n(C5CCCC5)c4n3)cc2)CC1` it is 1.03.
For the compound `O=c1cc(-c2ccccc2)oc2cc(O)c(O)c(O)c12` [Baicalein], the cell viability amounted to 0.974.
The figure for `CC(=O)N[C@@H](CS)C(=O)O` [Acetylcysteine] is 1.11; for `C[C@]1(c2nc3c(C(N)=O)cccc3[nH]2)CCCN1` [Veliparib] it is 0.865.
Consider `C[C@]1(c2nc3c(C(N)=O)cccc3[nH]2)CCCN1` [Veliparib dihydrochloride], for which the cell viability was 1.18.
To `Oc1ccccc1N=Cc1c(O)ccc2ccccc12` belongs 1.14; to `O=C(O)Cc1cccc(OCCCN(Cc2cccc(C(F)(F)F)c2Cl)CC(c2ccccc2)c2ccccc2)c1`, 1.1; to `COc1ccc(C=CC(=O)O)cc1OC` [3,4-Dimethoxycinnamic acid], 1.02.
To `O=C(O)c1ccc2c(c1)nc(Nc1cccc(Cl)c1)c1ccncc12` [Silmitasertib] belongs 1.02.
For the compound `CCN(CC)CCOc1ccc2c(c1)C(=O)c1cc(OCCN(CC)CC)ccc1-2` [Tilorone dihydrochloride], the cell viability came out at 1.
The figure for `O=C(/C=C/c1ccc(O)c(O)c1)c1ccc(O)cc1O` [Butein] is 1.08; for `O=C(CCCCCCC(=O)Nc1ccccc1)NO` [Vorinostat] it is 1.03; for `O=C(Cl)C(=O)c1c[nH]c2ccccc12` [Indole-3-Glyoxylyl Chloride] it is 1.24.
As to `COC(=O)C1=C(C)NC(C)=C(C(=O)OC2CCCN(Cc3ccccc3)C2)C1c1cccc([N+](=O)[O-])c1` (stereo unspecified) [Benidipine hydrochloride], the cell viability came out at 1.14.
Regarding `CCNC(=O)CCC/C=C\C[C@@H]1[C@@H](/C=C/[C@@H](O)CCc2ccccc2)[C@H](O)C[C@@H]1O` [Bimatoprost], the cell viability was determined as 1.23.
For the compound `COc1ccc(S(=O)(=O)Nc2cccnc2Nc2ccc(O)cc2)cc1`, the cell viability came out at 0.758.
To `Cc1ccc(NC(=O)c2cccc(N(C)C)c2)cc1NC(=O)c1ccc(O)cc1` belongs 1.03.

For the origin of these results see the supplement of paper PMC10600219.
